From the supplement of paper PMC7826260
Some of the results follow. Cleavage of a single-stranded DNA pool by Rep nickase domains was read by sequencing at 3 µM enzyme and 37 °C for 1 h; the strands have 90 letters, of which the middle is given. Numbers give uncut DNA relative to the enzyme-free pool, as log2; strong cutting gives strongly negative numbers. There is no active / inactive call. Because reads are shares of a total, they shift together; values above 0 arise when much of the pool is cut.

The sequences below were run on T1, Rep nickase domain of tomato golden mosaic virus (assay: uncleaved DNA left, log2 of reads against the no-enzyme library (log2 ratio); higher = less cleavage (more negative = more Rep cleavage of the k-mer); sequences stand for … in CTCGTCCG…ACCGGAGA).
T1 sequence (residues 1-124 of Rep, tag left off): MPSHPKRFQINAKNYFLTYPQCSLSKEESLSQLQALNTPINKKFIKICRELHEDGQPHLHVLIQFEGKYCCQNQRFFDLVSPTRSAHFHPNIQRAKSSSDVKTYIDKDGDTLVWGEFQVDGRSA
Procedure: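 A pool of 90-nt single-stranded DNAs with seven random bases just before the constant AC of the nick site (name = the seven bases) was cut by 3 µM recombinant His6-SUMO-tagged Rep nickase domain (300 nM DNA, 50 mM HEPES pH 8.0, 50 mM NaCl, 1 mM MnCl2, 1 h, 37 °C, three replicates). Uncut DNA was amplified and sequenced.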
For AGGTGAC, the “uncleaved DNA left (log2)” value was -0.0497. GGCCAGG was tested, and the “uncleaved DNA left (log2)” value was 0.18. For TTTCGAA, the “uncleaved DNA left (log2)” value was -0.0468. In the case of AGCATTG, the “uncleaved DNA left (log2)” value is reported as 0.00363. In the case of AATCGAT, the “uncleaved DNA left (log2)” value is reported as 0.00785. GGATCGG was tested, and the “uncleaved DNA left (log2)” value was 0.125. In the case of CTTTGCA, the “uncleaved DNA left (log2)” value is reported as -0.0727. In the case of CATGAAC, the “uncleaved DNA left (log2)” value is reported as 0.00951. GTCCGTG was tested, and the “uncleaved DNA left (log2)” value was 0.0456. In the case of TGAACCA, the “uncleaved DNA left (log2)” value is reported as -0.043. For GTAAATT, the “uncleaved DNA left (log2)” value was 0.0915. With CCTAGAC the “uncleaved DNA left (log2)” value was -0.125. TCAATGA was tested, and the “uncleaved DNA left (log2)” value was 0.0812. For TCGTGCC, the “uncleaved DNA left (log2)” value was -0.28. In the case of CGAGTAA, the “uncleaved DNA left (log2)” value is reported as 0.212. In the case of GTATGAT, the “uncleaved DNA left (log2)” value is reported as 0.0749. For AGGAGCA, the “uncleaved DNA left (log2)” value was -0.0749. AGAAGTG was tested, and the “uncleaved DNA left (log2)” value was 0.136. ACAGGGC was tested, and the “uncleaved DNA left (log2)” value was -0.0178. TTATTAG was tested, and the “uncleaved DNA left (log2)” value was 0.0041. GGTATAT was tested, and the “uncleaved DNA left (log2)” value was 0.183. For TACGTTT, the “uncleaved DNA left (log2)” value was -0.492. For TTCCAAC, the “uncleaved DNA left (log2)” value was -0.0816. AAACGAA was tested, and the “uncleaved DNA left (log2)” value was 0.066. With CTTAGAT the “uncleaved DNA left (log2)” value was 0.0537. In the case of TACCGGC, the “uncleaved DNA left (log2)” value is reported as 0.16. With TGACTGT the “uncleaved DNA left (log2)” value was -0.0786. TTTTGTA was tested, and the “uncleaved DNA left (log2)” value was 0.0179. In the case of TAGAACA, the “uncleaved DNA left (log2)” value is reported as -0.0364. In the case of CCGCTCT, the “uncleaved DNA left (log2)” value is reported as -0.157. With TCGGCTA the “uncleaved DNA left (log2)” value was -0.121. In the case of GTCGGAC, the “uncleaved DNA left (log2)” value is reported as 0.267. For AGTATCA, the “uncleaved DNA left (log2)” value was -0.0421. TCGACGT was tested, and the “uncleaved DNA left (log2)” value was -0.0544. In the case of CACGAAA, the “uncleaved DNA left (log2)” value is reported as 0.0188. TAGAGGT was tested, and the “uncleaved DNA left (log2)” value was 0.176. For GCCAGTC, the “uncleaved DNA left (log2)” value was 0.0273. In the case of ACTTGTT, the “uncleaved DNA left (log2)” value is reported as -0.114. For ATTGTCG, the “uncleaved DNA left (log2)” value was -0.0135. In the case of TGCAGAG, the “uncleaved DNA left (log2)” value is reported as 0.0451.
